Assay results reported in the supplement of paper PMC3334620.
Over roughly 33,000 sequences, “E-score (-0.5 to 0.5)” has its median near -0.016; the highest 2% begin near 0.31. The list shows a part of the results.

What follows are sequences tested against Cst6 (UniProt P40535) (assay: PBM E-score (8-mer binding enrichment) (E-score (-0.5 to 0.5)); higher = stronger / more preferred TF binding; most listed sequences are background and not binding sites). Conditions: protein concentration: 200 nM; construct: GST-DNA-binding domain.
Summary of the method: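 Bound GST-tagged yeast transcription factors, applied at about 100-200 nM to double-stranded universal all-10-mer Agilent arrays, were detected with fluorescent anti-GST. Scans were normalised with masliner. A modified Wilcoxon-Mann-Whitney statistic, the E-score, was assigned to each ungapped eight-base word pooled with its reverse complement by the Universal PBM Analysis Suite.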
In the case of CTACACGC, the “PBM E-score” value is reported as -0.263. With AAGTTACA the “PBM E-score” value was 0.175. For TAGTGTGA, the “PBM E-score” value was 0.128. In the case of AGTCGCGA, the “PBM E-score” value is reported as -0.00441. AGCTATCC was tested, and the “PBM E-score” value was -0.206. For CGAGTAGA, the “PBM E-score” value was -0.0314. ACAAAATC was tested, and the “PBM E-score” value was 0.219. ACTTGATG was tested, and the “PBM E-score” value was 0.205. With GGGAATCA the “PBM E-score” value was -0.161. CAAAGCCG was tested, and the “PBM E-score” value was -0.00593. With ACAAAAGT the “PBM E-score” value was 0.164. With TAAAGGCA the “PBM E-score” value was 0.146. For AAGGGACG, the “PBM E-score” value was -0.216. With GAAGTAGC the “PBM E-score” value was -0.0862. For AACCACAT, the “PBM E-score” value was 0.162. In the case of GATGGGGA, the “PBM E-score” value is reported as -0.334. For GTGGCCAA, the “PBM E-score” value was 0.00877. In the case of GGCCTTTA, the “PBM E-score” value is reported as -0.15. For ACCTGCGT, the “PBM E-score” value was -0.059. In the case of CGCATACG, the “PBM E-score” value is reported as 0.159. CCTTAAGG was tested, and the “PBM E-score” value was 0.0391. In the case of GGGTTGAA, the “PBM E-score” value is reported as -0.116. ATCAGTCC was tested, and the “PBM E-score” value was -0.333. In the case of CGCTAGGA, the “PBM E-score” value is reported as -0.047. In the case of TATGTGAA, the “PBM E-score” value is reported as 0.0102. GCCTAACC was tested, and the “PBM E-score” value was -0.159. With CAAAGTCC the “PBM E-score” value was -0.204. For TAGAGTAA, the “PBM E-score” value was 0.121. In the case of AGATCAAG, the “PBM E-score” value is reported as 0.083. For AAGGTTCG, the “PBM E-score” value was -0.124. For GTTGGCAA, the “PBM E-score” value was 0.0281. CCGTGTCC was tested, and the “PBM E-score” value was 0.0181. ACGTATCA was tested, and the “PBM E-score” value was 0.26. For CCAGGTAA, the “PBM E-score” value was -0.113. With AACTAATA the “PBM E-score” value was 0.336. For CAGCGCCG, the “PBM E-score” value was 0.146. In the case of CCCCTTCG, the “PBM E-score” value is reported as -0.211. For GCACATAA, the “PBM E-score” value was 0.0294. In the case of CCAGGTAC, the “PBM E-score” value is reported as -0.278. In the case of AACCTGCC, the “PBM E-score” value is reported as -0.147. With CGGAGAAA the “PBM E-score” value was -0.0341. CAGCAGAC was tested, and the “PBM E-score” value was -0.14. With CTATAGCC the “PBM E-score” value was -0.249. In the case of CGGTGCAC, the “PBM E-score” value is reported as -0.15. For ACTATTCA, the “PBM E-score” value was 0.117. AAGCGCTT was tested, and the “PBM E-score” value was 0.169. With CCGTATAC the “PBM E-score” value was -0.015. In the case of CCGAGACA, the “PBM E-score” value is reported as -0.083. ATCCGGTG was tested, and the “PBM E-score” value was -0.00686. CATGGCCC was tested, and the “PBM E-score” value was -0.129. For TCCGTTAA, the “PBM E-score” value was 0.136. CGGTTCCC was tested, and the “PBM E-score” value was -0.214. GGGACAAA was tested, and the “PBM E-score” value was -0.0226. CTCCAGAC was tested, and the “PBM E-score” value was -0.158. TAGGTTAA was tested, and the “PBM E-score” value was 0.102. CAACCGCC was tested, and the “PBM E-score” value was -0.0607. With CTTATGTC the “PBM E-score” value was 0.105. With GACTTTCA the “PBM E-score” value was -0.0832. GACAACCC was tested, and the “PBM E-score” value was -0.166. AGCGGATG was tested, and the “PBM E-score” value was -0.167. In the case of ATACACGG, the “PBM E-score” value is reported as 0.127. With TGATAGCA the “PBM E-score” value was 0.0573. With CTGTCCGC the “PBM E-score” value was -0.0972. In the case of AAATGATA, the “PBM E-score” value is reported as 0.304. With ATGTAAAT the “PBM E-score” value was 0.309. In the case of AGGGGCCC, the “PBM E-score” value is reported as -0.101. GCACAAGC was tested, and the “PBM E-score” value was -0.0487. With CTAATTAG the “PBM E-score” value was 0.132. For AGAGCTAC, the “PBM E-score” value was 0.0197. With ATTCAGAA the “PBM E-score” value was 0.113. CGGCACTC was tested, and the “PBM E-score” value was 0.0818. In the case of CCGAAGGA, the “PBM E-score” value is reported as -0.11. For CACGATCC, the “PBM E-score” value was -0.0466. With ATTCTGTC the “PBM E-score” value was 0.0249. In the case of ACATAGCT, the “PBM E-score” value is reported as -0.263. For GTCTCTGA, the “PBM E-score” value was 0.0019. CGCTTTAA was tested, and the “PBM E-score” value was 0.0171. With AATGTCAC the “PBM E-score” value was 0.308. In the case of GAGAGACC, the “PBM E-score” value is reported as -0.238. ACGTCCGC was tested, and the “PBM E-score” value was 0.0176. For ACTCGAAA, the “PBM E-score” value was 0.0948. With TACATCTA the “PBM E-score” value was 0.0515. With ACAACCGT the “PBM E-score” value was -0.0371. For ACAACCTA, the “PBM E-score” value was -0.0481. For ACATGGCC, the “PBM E-score” value was 0.00199. TTGACCAA was tested, and the “PBM E-score” value was 0.0011. In the case of ACGAGTCG, the “PBM E-score” value is reported as -0.0969. With CGAAGGAG the “PBM E-score” value was -0.0144. CGTAACAA was tested, and the “PBM E-score” value was 0.295. For ATAAACTA, the “PBM E-score” value was 0.196. In the case of GACGCGGC, the “PBM E-score” value is reported as 0.318. CAAGCGGC was tested, and the “PBM E-score” value was 0.283. ACTTGACA was tested, and the “PBM E-score” value was 0.0826. With CTCTTTAC the “PBM E-score” value was 0.00324. With CGACGTTA the “PBM E-score” value was 0.23. For ACTACGGC, the “PBM E-score” value was 0.0668. In the case of TCACTTAA, the “PBM E-score” value is reported as 0.109. For ACCATTAG, the “PBM E-score” value was -0.0421. For GTAATACA, the “PBM E-score” value was 0.234. In the case of ATATTGAC, the “PBM E-score” value is reported as 0.13. AAGCCCCT was tested, and the “PBM E-score” value was -0.335. With GTTGTCAA the “PBM E-score” value was 0.0505. GGAATACC was tested, and the “PBM E-score” value was -0.28. In the case of AGAAAACC, the “PBM E-score” value is reported as -0.0485. GCTATTAA was tested, and the “PBM E-score” value was 0.159. In the case of CCCGGTCA, the “PBM E-score” value is reported as -0.271. In the case of GCACATGA, the “PBM E-score” value is reported as 0.018. GTTCTGGA was tested, and the “PBM E-score” value was -0.0183. In the case of AATGGATG, the “PBM E-score” value is reported as 0.0722. With ACAGGTAA the “PBM E-score” value was 0.0752. With ACACAACA the “PBM E-score” value was 0.0731. In the case of AATGTTTC, the “PBM E-score” value is reported as -0.0286. For TCCCGAAA, the “PBM E-score” value was 0.045. In the case of AATCGCCA, the “PBM E-score” value is reported as -0.0227. For AGTGGTAT, the “PBM E-score” value was 0.022. In the case of TCAAGGAA, the “PBM E-score” value is reported as 0.102. AAGAGTGC was tested, and the “PBM E-score” value was -0.126. For ACAAGTAT, the “PBM E-score” value was 0.131. AATTTGGT was tested, and the “PBM E-score” value was 0.114. With ATGCTCCG the “PBM E-score” value was -0.185. In the case of ACCACCCA, the “PBM E-score” value is reported as 0.0252. With AGACTTAC the “PBM E-score” value was -0.0105. AAGTAAGC was tested, and the “PBM E-score” value was 0.0657. For CCGAGGTC, the “PBM E-score” value was -0.309. In the case of TCTCCTCA, the “PBM E-score” value is reported as -0.162. With GGAGTCTA the “PBM E-score” value was -0.28. For ATCCTTAA, the “PBM E-score” value was 0.00761. With GAGTCCGA the “PBM E-score” value was -0.0585. With GCCTAAGA the “PBM E-score” value was -0.104. GTGACTAA was tested, and the “PBM E-score” value was 0.179. In the case of ACCCACGA, the “PBM E-score” value is reported as -0.0914. In the case of GAGGCTGA, the “PBM E-score” value is reported as -0.0653. For ATATCTCA, the “PBM E-score” value was 0.188. With GGCGAGTA the “PBM E-score” value was -0.126. In the case of TACGAGTA, the “PBM E-score” value is reported as 0.109. CTCGTCCC was tested, and the “PBM E-score” value was -0.0813. For CTCCAGCC, the “PBM E-score” value was -0.141. ATTATTTG was tested, and the “PBM E-score” value was 0.259. In the case of ACCTTTCG, the “PBM E-score” value is reported as -0.124. CTTCCCAA was tested, and the “PBM E-score” value was -0.102. With GATATAAC the “PBM E-score” value was 0.16. In the case of GTGGGGGA, the “PBM E-score” value is reported as -0.302. With ATCACCCG the “PBM E-score” value was -0.00679. With CGATTGGC the “PBM E-score” value was -0.00755. For TAGCGGCA, the “PBM E-score” value was 0.0681. GGGAGGAA was tested, and the “PBM E-score” value was -0.147. For AAACCAGC, the “PBM E-score” value was -0.0742. GAAGTGGA was tested, and the “PBM E-score” value was -0.16. For CGATTCCG, the “PBM E-score” value was -0.0634. For CTCGTAGA, the “PBM E-score” value was -0.221. With AGCTTACA the “PBM E-score” value was 0.179. In the case of AAACTATC, the “PBM E-score” value is reported as 0.0274. ACATCATC was tested, and the “PBM E-score” value was 0.462. CTGGGTGC was tested, and the “PBM E-score” value was -0.186. With GGCCAATA the “PBM E-score” value was -0.0143. ACCGGCGA was tested, and the “PBM E-score” value was -0.0605. With CTCTATAA the “PBM E-score” value was 0.153. For ATAAGCAC, the “PBM E-score” value was 0.117. For CATATAGG, the “PBM E-score” value was -0.0567. For TACTGACA, the “PBM E-score” value was 0.0617. With ACTGTGAT the “PBM E-score” value was 0.0871. For GTACGCCA, the “PBM E-score” value was -0.0921. CTGACTAC was tested, and the “PBM E-score” value was 0.0278. For ACTAAACG, the “PBM E-score” value was 0.0597. In the case of GAGAGCTA, the “PBM E-score” value is reported as -0.0455. With AACGACGA the “PBM E-score” value was 0.0645. GAAGATGA was tested, and the “PBM E-score” value was 0.0745. ACCGTACA was tested, and the “PBM E-score” value was 0.0188. ATGAATGA was tested, and the “PBM E-score” value was 0.244. With GGAAAGCC the “PBM E-score” value was -0.0191. For CCCATGAG, the “PBM E-score” value was -0.15. With GTCCCTTA the “PBM E-score” value was -0.0674.
